# This is one part of the list.
# B1: SAG3 (Toxoplasma gondii), Q9BJ39 (protein)
# chain: MQLWRRRAAGPASLGRQSLPLGCFFAAFGLCVLSAILGTGERGLFVAAGNSRRKITYFGTLTQKAPNWYRCSSTRAKEEVVGHVTLNKEHPDMTIECVDDGLGGEFLPLEGARSSYPRVCHIDAKDQDDCERNRGFLTDYIPGAKQYWYKIEKVEQNGEQSVLYKFTVPWILLPPAKQRYKVGCRYPNHEYCFVEVTVEPTPPMVEGKRVTCGYSESGPVNLEVDLSKNANFIEIRCGEQHHPQPSTYTLQYCSGDSVDPQKCSPQSLTNIFYDYSSSWWKGKLNGPDGATLTIPPGGFPEEDKSFLVGCSLTVDGPPFCNVKVRVAGNPRKWERGGGGHPGSGGLQPGTDGETQAGTGSSAGASSRMASVALAFLLGLLVHVAA
# How the values were obtained:
# Experiment in all cases: glycan array binding signal (z-score within array); higher = stronger binding
# Conditions in all cases: glycan notation: IUPAC condensed, linker removed
# Fuc(a1-2)Gal = molecular target: Fuc(a1-2)Gal
# How it was run: (§1)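 Glycan array binding is given as a within-array Z-score, which can be read as non-binding when negative. The arrays, 3228 of them, came from the Consortium for Functional Glycomics database and were retained only where the protein sequence was available. Z-scores were averaged across arrays of the same protein sequence at different concentrations or buffers and across linkers.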
# Fuc(a1-2)Gal(b1-3)GalNAc = molecular target: Fuc(a1-2)Gal(b1-3)GalNAc
# How it was run: as §1
# [1] = molecular target: Fuc(a1-2)Gal(b1-3)GalNAc(a1-3)[Fuc(a1-2)]Gal(b1-4)Glc
# How it was run: as §1
# [2] = molecular target: Fuc(a1-2)Gal(b1-3)GalNAc(a1-3)[Fuc(a1-2)]Gal(b1-4)GlcNAc
# How it was run: as §1
# [3] = molecular target: Fuc(a1-2)Gal(b1-3)GalNAc(b1-3)Gal
# How it was run: as §1
# [4] = molecular target: Fuc(a1-2)Gal(b1-3)GalNAc(b1-3)Gal(a1-4)Gal(b1-4)Glc
# How it was run: as §1
# [5] = molecular target: Fuc(a1-2)Gal(b1-3)GalNAc(b1-4)[Neu5Ac(a2-3)]Gal(b1-4)Glc
# How it was run: as §1
# Fuc(a1-2)Gal(b1-3)GlcNAc = molecular target: Fuc(a1-2)Gal(b1-3)GlcNAc
# How it was run: as §1
# [6] = molecular target: Fuc(a1-2)Gal(b1-3)GlcNAc(b1-2)Man(a1-3)[Fuc(a1-2)Gal(b1-3)GlcNAc(b1-2)Man(a1-6)]Man(b1-4)GlcNAc(b1-4)GlcNAc
# How it was run: as §1
# [7] = molecular target: Fuc(a1-2)Gal(b1-3)GlcNAc(b1-3)Gal(b1-4)Glc
# How it was run: as §1
# [8] = molecular target: Fuc(a1-2)Gal(b1-3)GlcNAc(b1-3)[Fuc(a1-3)[Gal(b1-4)]GlcNAc(b1-6)]Gal(b1-4)Glc
# How it was run: as §1
# [9] = molecular target: Fuc(a1-2)Gal(b1-3)[Fuc(a1-4)]GlcNAc
# How it was run: as §1
# [10] = molecular target: Fuc(a1-2)Gal(b1-3)[Fuc(a1-4)]GlcNAc(b1-2)Man(a1-3)[Fuc(a1-2)Gal(b1-3)[Fuc(a1-4)]GlcNAc(b1-2)Man(a1-6)]Man(b1-4)GlcNAc(b1-4)GlcNAc
# How it was run: as §1
# [11] = molecular target: Fuc(a1-2)Gal(b1-3)[Fuc(a1-4)]GlcNAc(b1-3)[Fuc(a1-3)[Gal(b1-4)]GlcNAc(b1-6)]Gal(b1-4)Glc
# How it was run: as §1
# [12] = molecular target: Fuc(a1-2)Gal(b1-3)[Fuc(a1-4)]GlcNAc(b1-3)[Gal(b1-4)GlcNAc(b1-6)]Gal(b1-4)Glc
# How it was run: as §1
# Fuc(a1-2)Gal(b1-4)Glc = molecular target: Fuc(a1-2)Gal(b1-4)Glc
# How it was run: as §1
# Fuc(a1-2)Gal(b1-4)Glc6S = molecular target: Fuc(a1-2)Gal(b1-4)Glc6S
# How it was run: as §1
# Fuc(a1-2)Gal(b1-4)GlcNAc = molecular target: Fuc(a1-2)Gal(b1-4)GlcNAc
# How it was run: as §1
# [13] = molecular target: Fuc(a1-2)Gal(b1-4)GlcNAc(b1-2)Man(a1-3)[Fuc(a1-2)Gal(b1-4)GlcNAc(b1-2)Man(a1-6)]Man(b1-4)GlcNAc(b1-4)GlcNAc
# How it was run: as §1
# [14] = molecular target: Fuc(a1-2)Gal(b1-4)GlcNAc(b1-3)Gal(b1-4)GlcNAc
# How it was run: as §1
# [15] = molecular target: Fuc(a1-2)Gal(b1-4)GlcNAc(b1-3)Gal(b1-4)GlcNAc(b1-3)Gal(b1-4)GlcNAc
# How it was run: as §1
# [16] = molecular target: Fuc(a1-2)Gal(b1-4)GlcNAc(b1-3)GalNAc
# How it was run: as §1
# [17] = molecular target: Fuc(a1-2)Gal(b1-4)GlcNAc6S
# How it was run: as §1
# [18] = molecular target: Fuc(a1-2)Gal(b1-4)[Fuc(a1-3)]GlcNAc
# How it was run: as §1
# [19] = molecular target: Fuc(a1-2)Gal(b1-4)[Fuc(a1-3)]GlcNAc(b1-2)Man(a1-3)[Fuc(a1-2)Gal(b1-4)[Fuc(a1-3)]GlcNAc(b1-2)Man(a1-6)]Man(b1-4)GlcNAc(b1-4)GlcNAc
# How it was run: as §1
# [20] = molecular target: Fuc(a1-2)Gal(b1-4)[Fuc(a1-3)]GlcNAc(b1-3)Gal(b1-4)[Fuc(a1-3)]GlcNAc
# How it was run: as §1
# [21] = molecular target: Fuc(a1-2)Gal(b1-4)[Fuc(a1-3)]GlcNAc(b1-3)Gal(b1-4)[Fuc(a1-3)]GlcNAc(b1-3)Gal(b1-4)[Fuc(a1-3)]GlcNAc
# How it was run: as §1
# Fuc(a1-2)Gal6S(b1-4)Glc = molecular target: Fuc(a1-2)Gal6S(b1-4)Glc
# How it was run: as §1
# [22] = molecular target: Fuc(a1-2)Gal6S(b1-4)Glc6S
# How it was run: as §1
# [23] = molecular target: Fuc(a1-2)Gal6S(b1-4)GlcNAc
# How it was run: as §1
binder,measurement,setting,value
B1,glycan array binding signal (z-score),Fuc(a1-2)Gal,-0.404
same,glycan array binding signal (z-score),Fuc(a1-2)Gal(b1-3)GalNAc,-0.359
same,glycan array binding signal (z-score),[1],-0.149
same,glycan array binding signal (z-score),[2],-0.171
same,glycan array binding signal (z-score),[3],0.246
same,glycan array binding signal (z-score),[4],-0.474
same,glycan array binding signal (z-score),[5],-0.111
same,glycan array binding signal (z-score),Fuc(a1-2)Gal(b1-3)GlcNAc,-0.116
same,glycan array binding signal (z-score),[6],0.107
same,glycan array binding signal (z-score),[7],-0.246
same,glycan array binding signal (z-score),[8],0.235
same,glycan array binding signal (z-score),[9],-0.519
same,glycan array binding signal (z-score),[10],6.32
same,glycan array binding signal (z-score),[11],-0.082
same,glycan array binding signal (z-score),[12],0.4
same,glycan array binding signal (z-score),Fuc(a1-2)Gal(b1-4)Glc,-0.397
same,glycan array binding signal (z-score),Fuc(a1-2)Gal(b1-4)Glc6S,-0.145
same,glycan array binding signal (z-score),Fuc(a1-2)Gal(b1-4)GlcNAc,0.63
same,glycan array binding signal (z-score),[13],-0.221
same,glycan array binding signal (z-score),[14],-0.708
same,glycan array binding signal (z-score),[15],-0.005
same,glycan array binding signal (z-score),[16],-0.177
same,glycan array binding signal (z-score),[17],0.074
same,glycan array binding signal (z-score),[18],-0.359
same,glycan array binding signal (z-score),[19],2.31
same,glycan array binding signal (z-score),[20],0.251
same,glycan array binding signal (z-score),[21],-0.127
same,glycan array binding signal (z-score),Fuc(a1-2)Gal6S(b1-4)Glc,0.041
same,glycan array binding signal (z-score),[22],-0.015
same,glycan array binding signal (z-score),[23],-0.304

# — the supplement of paper PMC8728848
